Experimental data: PubChem BioAssay AID1468 (National Center for Advancing Translational Sciences (NCATS), 2008)
Out of some 280,000 compounds screened, about 1,100 (0.39%) were called active. Inconclusive results, whose numbers are uncertain, are shown with a selection of clear calls. The call rests on the fitted dose curve; in most records, active means well fitted inhibition curve with a large enough effect; inconclusive means small, poorly fitted or top-dose-only effect, or effect the other way; inactive means flat fitted curve, though single readings scatter. Potencies of inconclusive entries are left out as doubtful fits.

The compounds below were run against Microtubule-associated protein tau (Homo sapiens) (UniProt P10636) (assay: qHTS for Inhibitors of Tau Fibril Formation, Fluorescence Polarization). Settings: K18 P301L tau heparin fibrillization, Alexa594 FP, 6 h; series mostly up to 57.7 µM; activity, negative = inhibition: at the top concentration.
UniProt P10636, sequence (P10636 whole entry, looked up): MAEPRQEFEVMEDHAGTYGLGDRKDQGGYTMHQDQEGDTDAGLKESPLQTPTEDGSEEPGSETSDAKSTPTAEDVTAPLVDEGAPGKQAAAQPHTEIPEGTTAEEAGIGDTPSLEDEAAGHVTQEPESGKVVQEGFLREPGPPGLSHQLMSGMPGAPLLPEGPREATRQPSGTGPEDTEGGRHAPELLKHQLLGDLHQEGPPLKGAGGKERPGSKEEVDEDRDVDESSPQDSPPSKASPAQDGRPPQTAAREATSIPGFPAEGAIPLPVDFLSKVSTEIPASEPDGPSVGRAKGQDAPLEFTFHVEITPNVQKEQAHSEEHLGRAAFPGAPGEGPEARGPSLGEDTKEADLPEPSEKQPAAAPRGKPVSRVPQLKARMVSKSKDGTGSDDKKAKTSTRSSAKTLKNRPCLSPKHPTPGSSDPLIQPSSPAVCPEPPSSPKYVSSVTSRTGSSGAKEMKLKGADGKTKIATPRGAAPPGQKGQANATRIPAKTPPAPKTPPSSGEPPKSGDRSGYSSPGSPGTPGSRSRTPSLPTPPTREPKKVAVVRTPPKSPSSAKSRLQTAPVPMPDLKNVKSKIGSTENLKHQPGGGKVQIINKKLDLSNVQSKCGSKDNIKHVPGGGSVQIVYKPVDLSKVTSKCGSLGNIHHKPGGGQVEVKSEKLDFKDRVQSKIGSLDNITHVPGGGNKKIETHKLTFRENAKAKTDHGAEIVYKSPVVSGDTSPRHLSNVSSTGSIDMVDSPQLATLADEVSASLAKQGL
Method in brief: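 Compound effects on tau fibrillization are measured by Alexa 594 fluorescence polarization (ex 555, em 632 nm). K18 P301L tau is used at 15 uM with 0.24 uM labeled tracer, and 20 uM heparin induces aggregation over 6 hr at 37 C.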
Further: nearly all actives have a fitted effect of over 55% in size.
On the % scale 0 is the no-effect control and ±100 the full control effect; potency means the concentration at half of the fitted maximal effect; tags describe the fitted curve by direction and shape.

SMILES	Potency	activity, negative = inhibition
Cc1ccc(C)c(NC(=S)NC(NC(=O)OCc2ccccc2)C(Cl)(Cl)Cl)c1 (configuration not stated)	inconclusive [inhibitor, single point]	–
Cc1[nH]n(-c2ccccc2)c(=O)c1/C=N/O	–	inactive: 1.26%
COc1cccc([C@@H]2Oc3ccc(OC)cc3C[C@H]2OC(=O)Nc2ccc(OC(F)F)cc2)c1	inconclusive [inhibitor, single point]	–
Cc1ccc(N(C)C(=O)C2CCN(S(=O)(=O)c3ccc4c(c3)CCCN4C(=O)C3CCC3)CC2)cc1	–	inactive: 3.78%
Oc1ccc(/C=N/N(Cc2ccccc2)c2ccccc2)c(O)c1O	inconclusive [inhibitor, partial curve]	–
Nc1cc(-c2ccc(Br)cc2)nc2cc(-c3ccccc3)nn12	inconclusive [inhibitor, partial curve]	–
CC(C)(C)c1ccc(Oc2ccc(NC(=O)c3ccco3)cn2)cc1	inconclusive [inhibitor, single point]	–
COc1ccc2nc(C)cc(Sc3nc4ccccc4s3)c2c1	inconclusive [inhibitor, partial curve]	–
CC(NS(=O)(=O)c1ccccc1)C(=O)NCc1ccco1 (configuration not stated)	inconclusive [inhibitor, single point]	–
CCOC(=O)C1CCN(C(=O)COC(=O)CNC(=O)c2ccc(OC)cc2)CC1	–	inactive: -4.98%
Cc1nc2ccc(S(=O)(=O)N(C)CC(=O)Nc3ccc(Br)c(C)c3)cc2s1	inconclusive [inhibitor, partial curve]	–
CC(C)OCc1c(C(=O)Nc2nccs2)oc2ccccc12	inconclusive [inhibitor, single point]	–
CC(=O)c1ccc(Sc2nnc(C)s2)c([N+](=O)[O-])c1	–	inactive: -7.13%
CC(C)(C)CC(C)(C)NC(=O)CSCC(=O)Nc1ccc2ccccc2c1	inconclusive [inhibitor, single point]	–
CC1(N2CCOCC2)CC2(O)C(=[N+]1[O-])CCc1c2no[n+]1[O-] (configuration not stated)	inconclusive [inhibitor, partial curve]	–
Cc1ccc(SCc2nc3ccccc3n2CC(=O)Nc2ccc(Cl)cc2)cc1	inconclusive [inhibitor, partial curve, poor fit]	–
CCOc1ccccc1NC(=O)C(NS(=O)(=O)c1cccc2nsnc12)c1ccccc1 (configuration not stated)	–	inactive: -14.8%
O=C(Nc1cc(Cl)cc(Cl)c1)c1cccc(OC(F)F)c1	active: 20 µM	–
N#CCCn1[nH]c(-c2ccccc2)cc1=O	inconclusive [inhibitor, full curve, poor fit]	–
COc1cccc(NC(=O)c2oc3ccccc3c2NC(=O)C(C)(C)C)c1	inconclusive [inhibitor, partial curve]	–
S=C(NCc1ccncc1)NC1CCCC1	–	inactive: -0.252%
Cc1ccc(N(Cc2ccc(C(=O)Nc3ccccc3C(=O)NCc3ccco3)cc2)S(C)(=O)=O)cc1C	inconclusive [inhibitor, single point]	–
Cc1ccccc1C(=O)N/N=C/c1ccc([N+](=O)[O-])s1	–	inactive: -1.96%
CCC(=O)Nc1sc2c(c1C#N)CCC2	–	inactive: 2.18%

SMILES	Potency	activity, negative = inhibition
Cc1oc2ncnc(N3CCCCC3)c2c1C(=O)NCC1CCN(Cc2ccc(F)cc2)CC1	inconclusive [inhibitor, single point]	–
CCOC(=O)C1=C(C)OC(N)=C(C#N)C1c1c(C)nn(-c2ccc(C)cc2)c1Cl (configuration not stated)	–	inactive: 5.68%
Cc1nc(-c2ccc(NS(C)(=O)=O)cc2)cs1	–	inactive: -3.92%
CC(C)Oc1ccc(CNC(=O)c2ccc(NC(=O)c3nsc4ccccc34)cc2)cc1	inconclusive [inhibitor, partial curve]	–
O=C(OCc1ccccc1Cl)c1ccc(-c2nnn(Cc3ccccc3)n2)cc1	–	inactive: -4.01%
Cc1cnn(C(=O)c2cc(-c3ccccc3)nc3ccccc23)c1	inconclusive [inhibitor, partial curve]	–
C[C@@H](C(=O)N[C@@H](CO)Cc1ccccc1)[C@@H]1C[C@@]1(C)[C@@H](NC(=O)OCc1ccccc1)c1ccccc1	–	inactive: 8.29%
O=C1C=C(N(CCO)Cc2ccccc2)c2ccccc2C1=O	inconclusive [inhibitor, partial curve]	–
O=[N+]([O-])c1ccc(COc2ccc(-c3[nH]ncc3-c3ccccc3)c(O)c2)cc1	inconclusive [inhibitor, partial curve]	–
CCc1ccccc1NC(=O)CSc1ncc2c(n1)-c1ccccc1N(Cc1ccc(C)cc1)S2(=O)=O	inconclusive [inhibitor, full curve]	–
Nc1c(C(=O)NC2CC2)sc2nc3c(c(-c4ccco4)c12)CC/C3=C/c1ccco1	inconclusive [inhibitor, single point]	–
Cc1[nH]n(-c2ccccc2)c(=O)c1/C=N/N1CCOCC1	–	inactive: -1.24%
CCOC(=O)c1ccccc1NS(=O)(=O)c1c(-c2ccc(C)cc2)csc1C(=O)OC	–	inactive: -11.8%
O=C(CSc1nc2ccccc2c(=O)n1CCC(=O)N1CCCCC1)NCc1ccccc1	–	inactive: -2.38%
O=C(Nc1ccc(Cl)c(Cl)c1)Nc1ccc(Br)cc1F	active: 7.08 µM	–
COc1ccccc1CNS(=O)(=O)c1c(C)nc2sccn2c1=O	–	inactive: -0.213%
COc1cc(NC(=O)c2cc3c(=O)oc4ccc(C)cc4c3s2)cc(OC)c1OC	–	inactive: 0.683%
CC(C)(CC(=O)OCC(=O)Nc1ccc(F)c(Cl)c1)CC1=NS(=O)(=O)c2ccccc2N1	inconclusive [inhibitor, partial curve]	–
CC(=O)Oc1c(C)cc(O)c2ccccc12	inconclusive [inhibitor, single point]	–
Brc1ccc(-c2cc3c(N4CCN(c5ccccc5)CC4)nccn3n2)cc1	–	inactive: -0.758%
Cc1nc(C)c(-c2ccc(SCC(=O)Nc3ccccc3F)nn2)s1	–	inactive: -5.49%
CCOC(=O)C1=C(C)N(c2ccc(OC)cc2)C(=O)/C1=C\c1cccs1	inconclusive [inhibitor, partial curve]	–
CS(=O)c1ccccc1-c1nc(-c2ccc(Cl)cc2)no1 (configuration not stated)	–	inactive: 0.0932%
